Experimental data reported in the supplement of paper PMC7826260.
The other results are listed elsewhere or left out. Each Rep nickase domain was tested in vitro on the same pool of single strands (3 µM enzyme, 1 h, 37 °C); shown is the middle of each 90-letter strand. Values are log2 of uncut reads against the no-enzyme pool; the lower, the more was cut; hits are not called. Counts are relative to all reads; uncut strands gain when others are lost, and binding without cutting may add a little.

Key:
Test in all cases: uncleaved DNA left, log2 of reads against the no-enzyme library (log2 ratio); higher = less cleavage (more negative = more Rep cleavage of the k-mer); sequences stand for … in CTCGTCCG…ACCGGAGA
[1] = tested on: T1, Rep nickase domain of Muscovy duck circovirus
T1 sequence (residues 1-111 of Rep, tag left off): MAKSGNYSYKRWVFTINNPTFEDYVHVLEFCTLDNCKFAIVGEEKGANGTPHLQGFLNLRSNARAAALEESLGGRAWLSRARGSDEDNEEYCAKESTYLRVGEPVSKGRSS
Method: (§1)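 A pool of 90-nt single-stranded DNAs with seven random bases just before the constant AC of the nick site (name = the seven bases) was cut by 3 µM recombinant His6-SUMO-tagged Rep nickase domain (300 nM DNA, 50 mM HEPES pH 8.0, 50 mM NaCl, 1 mM MnCl2, 1 h, 37 °C, three replicates). Uncut DNA was amplified and sequenced.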

[2] = tested on: T2, Rep nickase domain of banana bunchy top virus
T2 sequence (residues 1-94 of Rep, tag left off): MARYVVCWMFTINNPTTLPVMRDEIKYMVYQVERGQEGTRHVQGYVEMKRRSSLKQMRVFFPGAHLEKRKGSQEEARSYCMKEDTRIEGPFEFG
Method: as §1

[3] = tested on: T3, Rep nickase domain of cabbage leaf curl virus
T3 sequence (residues 1-116 of Rep, tag left off): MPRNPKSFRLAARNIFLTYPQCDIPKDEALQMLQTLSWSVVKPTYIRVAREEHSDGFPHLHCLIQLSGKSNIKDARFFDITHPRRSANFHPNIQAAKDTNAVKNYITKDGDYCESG
Method: as §1

[4] = tested on: T4, Rep nickase domain of chickpea chlorotic dwarf virus
T4 sequence (residues 1-124 of Rep, tag left off): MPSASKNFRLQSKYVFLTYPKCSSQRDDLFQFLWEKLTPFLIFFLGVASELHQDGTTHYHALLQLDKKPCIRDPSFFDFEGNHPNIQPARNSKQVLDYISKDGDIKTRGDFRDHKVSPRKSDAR
Method: as §1

[5] = tested on: T5, Rep nickase domain of faba bean necrotic yellows virus
T5 sequence (residues 1-98 of Rep, tag left off): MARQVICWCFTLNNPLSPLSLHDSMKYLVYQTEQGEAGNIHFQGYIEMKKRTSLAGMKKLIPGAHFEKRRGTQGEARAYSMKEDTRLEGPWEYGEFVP
Method: as §1

[6] = tested on: T6, Rep nickase domain of maize striate mosaic virus
T6 sequence (residues 1-117 of Rep, tag left off): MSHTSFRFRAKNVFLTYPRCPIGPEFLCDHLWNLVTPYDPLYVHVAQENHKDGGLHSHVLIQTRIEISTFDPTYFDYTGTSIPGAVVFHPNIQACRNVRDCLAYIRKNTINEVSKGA
Method: as §1

[7] = tested on: T7, Rep nickase domain of porcine circovirus 2
T7 sequence (residues 2-116 of Rep, tag left off): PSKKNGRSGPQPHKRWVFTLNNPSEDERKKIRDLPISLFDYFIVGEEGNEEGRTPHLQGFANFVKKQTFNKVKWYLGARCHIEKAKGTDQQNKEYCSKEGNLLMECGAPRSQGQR
Method: as §1

[8] = tested on: T8, Rep nickase domain of tomato yellow leaf curl virus
T8 sequence (residues 1-136 of Rep, tag left off): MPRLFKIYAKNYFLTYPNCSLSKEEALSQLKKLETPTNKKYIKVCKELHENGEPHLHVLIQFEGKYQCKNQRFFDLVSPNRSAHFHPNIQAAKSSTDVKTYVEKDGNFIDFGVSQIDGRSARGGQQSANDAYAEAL
Method: as §1

[9] = tested on: T9, Rep nickase domain of wheat dwarf virus
T9 sequence (residues 1-137 of Rep, tag left off): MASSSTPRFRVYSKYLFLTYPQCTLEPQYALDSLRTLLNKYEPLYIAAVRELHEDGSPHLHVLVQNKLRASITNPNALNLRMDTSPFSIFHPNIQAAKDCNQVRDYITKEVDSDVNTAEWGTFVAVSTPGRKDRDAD
Method: as §1

Sequence	uncleaved DNA left (log2) [1]	uncleaved DNA left (log2) [2]	uncleaved DNA left (log2) [3]	uncleaved DNA left (log2) [4]	uncleaved DNA left (log2) [5]	uncleaved DNA left (log2) [6]	uncleaved DNA left (log2) [7]	uncleaved DNA left (log2) [8]	uncleaved DNA left (log2) [9]
TATCGGG	-0.0204	-0.0274	-0.0615	-0.00914	-0.101	-0.502	0.0926	-0.0788	-0.218
TCTAATT	-0.0936	-0.00397	-0.102	-2.56	-0.00581	-0.459	-1.72	0.0427	-0.161
AGGTGGT	-0.0276	-0.0112	0.202	1.27	-0.113	1.7	-0.656	-0.122	-0.0156
TCAGCAG	-0.0224	-0.101	-0.606	-0.733	-0.0529	-1.14	0.167	-0.0413	-0.0519
ACAAGGC	-0.00663	0.0972	-0.3	-0.126	0.101	-0.882	0.272	0.0813	0.0722
AGATTAA	0.0269	0.0249	0.142	0.139	0.154	-0.274	-0.0633	0.15	-0.0336
ACTCTAC	-0.0238	-0.146	-0.487	-2.17	-0.0922	-0.865	0.0159	-0.197	-0.143
AAACGTA	0.0438	-0.00468	-0.219	-1.86	0.114	-0.625	-0.0118	-0.0181	-0.0488
ACGGTGC	0.0606	-0.105	-0.604	-0.472	-0.0123	-0.952	0.18	0.105	-0.162
AGTACGG	0.142	0.151	0.314	1.06	0.154	1.56	0.117	-0.00398	0.0892
CCACTAT	0.103	0.0203	-0.017	-1.68	0.103	-0.62	-0.0918	-0.0709	0.0278
CTAGGTT	0.0398	0.157	0.226	0.63	-0.11	1.63	0.0231	-0.0969	0.138
TACACGT	-0.0314	-0.191	-0.39	-1.84	-0.11	-0.829	-0.168	-0.171	-0.127
AAGACGC	-0.0669	-0.0669	-0.0184	-0.089	-0.00247	-0.507	-0.0278	-0.0933	-0.0541
GGTGTAC	0.0806	0.125	0.656	1.45	-0.0378	2.11	0.262	0.108	0.132
AGGGTGA	-0.00315	-0.0398	0.0814	0.643	0.0446	0.736	0.14	-0.0585	-0.0247
TGGCGCA	-0.0311	-0.0536	-0.148	-0.238	-0.0611	-0.294	-0.0619	-0.176	-0.107
CTAGGGC	-0.0893	0.0582	0.0941	0.446	0.0396	-0.139	-0.0561	-0.00579	0.067
ATGAGTG	0.127	0.199	-0.234	0.303	0.142	-0.687	0.27	0.05	0.0337
CCTTATT	-4	-3.07	-0.559	-3.38	-0.109	-0.879	-3.22	0.0134	-0.634
AACCCTT	0.114	0.081	0.871	0.657	0.0218	2.08	-0.141	0.141	0.182
TCGCTGT	0.187	0.101	0.308	0.706	0.212	1.08	0.0814	0.0128	0.138
TCTTCAG	-0.0625	-0.0681	-0.382	-0.753	0.0199	-1.11	0.108	-0.0216	-0.0538
CATTATT	-4.7	-4.2	-3.8	-3.62	-3.75	-2.44	-4.12	-0.126	-3.74
CGCTCCC	0.00298	-0.0109	0.109	0.0121	0.11	0.238	-0.0449	-0.0261	-0.00499
TGCCTAG	-0.00163	-0.0583	-0.781	-0.643	0.0499	-0.999	0.0476	-0.0488	-0.166
AAACGTG	0.0533	0.0283	-0.57	-0.761	0.0425	-1.07	0.155	0.00895	-0.0287
TGTTCAA	0.149	-0.00425	0.259	0.575	0.0722	0.623	-0.046	0.133	0.108
GCACGGC	-0.0374	-0.0951	0.0435	0.468	0.0574	0.0129	-0.0115	-0.12	-0.154
CCTTGAT	-0.234	0.0418	-0.148	-0.0906	0.036	0.0825	-1.53	-0.0774	-0.087
